Assay results as given in PubChem BioAssay AID686978 (National Center for Advancing Translational Sciences (NCATS), 2013).
In all, about 420,000 compounds went through this assay and about 64,000 (15%) were called active. The shares of active, inactive and inconclusive entries below differ from those in the screen. The call rests on the fitted dose curve; in most records, active means well fitted inhibition curve with a large enough effect; inconclusive means small, poorly fitted or top-dose-only effect; inactive means flat fitted curve, though single readings scatter. No potency is given beside an inconclusive call; the fits are too rough.

Test: qHTS for Inhibitors of human tyrosyl-DNA phosphodiesterase 1 (TDP1): qHTS in cells in absence of CPT; further: nearly all actives have a fitted effect of over 55% in size
Settings: DT40 Tdp1-/- hTDP1 cells, no CPT, ATP luminescence, 48 h; activity change, negative = growth inhibition: at 46.2 µM (top of the series)
In short: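 No-CPT arm: Tdp1-/-;hTDP1 DT40 cells (400/well) plus compounds, incubated ≥48 hr at 37 °C. Readout CellTiter-Glo luminescence.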
On the % scale 0 is the no-effect control and ±100 the full control effect; potency means the concentration at half of the fitted maximal effect; tags describe the fitted curve by direction and shape.

Row | Structure (SMILES) | activity change, negative = growth inhibition | Potency
1 | CN(C(=O)c1cc([N+](=O)[O-])ccc1NCc1cccnc1)c1ccccc1 | inactive: -27.1% | 
2 | C=CCOC(=O)c1[nH]c2c(c1C)C(=O)CC(c1ccco1)C2 (stereo not given) |  | active: 0.0065 µM
3 | CCN(CC)CC(=O)N1CCCC(N2CCN(c3cccc(C(F)(F)F)c3)CC2)C1 (stereo not given) |  | inconclusive [inhibitor, single point]
4 | Cc1cc(C(=O)CCC(=O)NCc2ccccc2F)c(C)s1 | inactive: -2.61% | 
5 | O=C(NCc1ccc(Cl)cc1)c1ccc(CSc2nc3ccncc3[nH]2)cc1 |  | inconclusive [inhibitor, partial curve]
6 | O=c1nc(Nc2ccc(Br)cc2)sc2ccc([N+](=O)[O-])cc12 | inactive: -1.67% | 
7 | COc1ccccc1-c1ccnc(-n2ncc(C(=O)NCc3cccc(C)n3)c2C)n1 | inactive: -1.66% | 
8 | Cc1ccc(C(=O)COC(=O)c2ccccc2N2C(=O)C3C4CCC(C4)C3C2=O)cc1C (stereo not given) |  | inconclusive [inhibitor, single point]
9 | COC(=O)c1nn(-c2ccc(-c3ccccc3)cc2)cc1O |  | inconclusive [inhibitor, single point]
10 | COc1ccc(-c2cc(C(=O)Nc3cc(Br)ccc3O)no2)cc1 |  | inconclusive [inhibitor, single point]
11 | CN1/C(=C\C(=O)Nc2cccc(Cl)c2)C(C)(C)c2ccccc21 |  | active: 23.1 µM
12 | Cc1cc(C)c(OCCCCN2CCNCC2)c(C)c1 |  | inconclusive [inhibitor, partial curve]
13 | Cc1ccc(C2C(=O)N(C3CCC(C)CC3)CC(=O)N2C2CCCC2)cc1 (stereo not given) |  | inconclusive [inhibitor, partial curve]
14 | COC(=O)N/N=C\c1ccccc1OC/C=C/c1ccccc1 |  | inconclusive [inhibitor, single point]
15 | Cc1cc(N2C(=O)c3ccc(C(=O)NCc4ccccc4)cc3C2=O)no1 | inactive: 0.0239% | 
16 | CCOC(=O)C1(Cc2cccc(OC)c2)CCN(Cc2cnc(SC)nc2)CC1 |  | inconclusive [inhibitor, partial curve]
17 | Cc1cccc(NC(=O)c2sc(-c3ccccc3)nc2-c2ccc([N+](=O)[O-])cc2)c1 |  | inconclusive [inhibitor, single point]
18 | CCc1cccc(C)c1NC(=O)c1ccc2c(c1)CCN2S(=O)(=O)c1ccc(Cl)cc1 |  | active: 9.2 µM

Row | Structure (SMILES) | activity change, negative = growth inhibition | Potency
19 | COc1cc(C(=O)NCC(c2ccco2)S(=O)(=O)c2cccs2)cc(OC)c1OC (stereo not given) |  | inconclusive [inhibitor, single point]
20 | COc1ccccc1N1CCN(C(=O)COc2ccc(C)cc2Br)CC1 |  | inconclusive [inhibitor, partial curve, poor fit]
21 | CCOc1ccc(C2C(C#N)=C(N)SC(N)=C2C#N)c(OCC)c1 |  | inconclusive [inhibitor, single point]
22 | Cc1nnsc1C(=O)N(Cc1ccccc1)C(C)C | inactive: 1.18% | 
23 | Cc1ccc(S(=O)(=O)CC2CSc3nc4ccccc4n32)cc1 (stereo not given) |  | active: 1.84 µM
24 | O=C(COC(=O)c1cc([N+](=O)[O-])ccc1N1CCOCC1)Nc1ccc(Cl)cc1 |  | inconclusive [inhibitor, single point]
25 | Cc1cc(S(=O)(=O)NC2CCCCC2)ccc1OCC(=O)NCC1CCCO1 (stereo not given) |  | inconclusive [inhibitor, single point]
26 | CC(=O)c1cccc(NC(=O)NCCc2ccc(Cl)cc2)c1 | inactive: -20.4% | 
27 | Cc1ccc(-n2c(=O)c3c(c4cc(C)ccc4n3C)n(CC(=O)Nc3ccc(F)cc3)c2=O)cc1 |  | inconclusive [inhibitor, full curve]
28 | O=C(NCc1ccccc1)c1ccc(NC(=O)C2CC2)cc1 | inactive: -4.81% | 
29 | COc1ccc(N(Cc2cccs2)C(=O)c2ccco2)cc1 |  | inconclusive [inhibitor, single point]
30 | CCCCC(=O)Nc1nnc(S(=O)(=O)N(C)Cc2ccc(Cl)cc2)s1 | inactive: -22% | 
31 | C/C(=N\NC(=O)c1ccn(C)n1)c1ccc(NC(=O)C2CCCC2)cc1 |  | active: 18.4 µM
32 | Cc1cc(C)cc(NC(=O)CCc2c(C)nc3nc(CNC(=O)c4cccc(F)c4)nn3c2C)c1 |  | inconclusive [inhibitor, partial curve]
33 | Clc1cccc(Cl)c1CSc1nnc(-c2sccc2-n2cccc2)o1 |  | inconclusive [inhibitor, single point]
34 | Cc1csc(SCC(=O)Nc2cccc3nsnc23)n1 |  | inconclusive [inhibitor, partial curve]
35 | CCN(CC)C(=O)CC(c1ccc(OC)cc1)c1c(O)cc(OC)cc1OC (stereo not given) |  | inconclusive [inhibitor, single point]
